Measured values: PubChem BioAssay AID1347417 (National Center for Advancing Translational Sciences (NCATS), 2020)
Screen size: about 120,000 compounds; about 5,300 (4.4%) were called active. The inconclusive results got no clear call from the source; some entries with a clear call stand among them for comparison. The call rests on the fitted dose curve; in most records, active means well fitted inhibition curve with a large enough effect; inconclusive means small, poorly fitted or top-dose-only effect; inactive means no such curve, though single readings can be large or run the other way. Where the call is inconclusive, the potency comes from a doubtful curve fit.
Potency means the concentration at half of the fitted maximal effect; tags describe the fitted curve by direction and shape.

Experiment: qHTS Primary assay for Inhibitors of Plasmodium falciparum Dd2 growth in vitro; further: nearly all actives have a fitted effect of over 65% in size;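 on activity, negative = inhibition: plate controls were DMSO vehicle for no effect and reference drug for full effect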
Conditions: P. falciparum Dd2 growth, SYBR Green, 72 h; activity, negative = inhibition: at 28.9 µM (top of the series) unless noted; series mostly up to 28.9 µM
Summary of the method: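 Infected erythrocytes (Dd2, 0.3% parasitemia, 2.5% hematocrit final) are added to compound in RPMI-1640/Albumax II medium, grown 72 h at 37C in low oxygen, then lysed with saponin/Triton-X containing SYBR Green and read by fluorescence.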
With `OC1CN(Cc2ccc(-c3cnc4c(OCc5ccccc5)nccn34)cc2)C1` the Potency was inconclusive: 0.794 µM [inhibitor, full curve, poor fit].
For `COc1ccc(C2Cn3nnc(-c4noc(-c5ccc(Cl)cc5OC)n4)c3CO2)cc1` (configuration not stated), the Potency was inconclusive: 1.41 µM [inhibitor, full curve, poor fit].
In the case of `O=c1oc2c(F)cc(F)cc2cc1S(=O)(=O)c1ccc(F)cc1`, the Potency is reported as inconclusive: 7.08 µM [inhibitor, partial curve, poor fit].
In the case of `O=C(O)c1ccccc1C(=O)N[C@H]1CO[C@H]2[C@@H]1OC[C@@H]2n1nnnc1Oc1cccc(N2CCOCC2)c1`, the Potency is reported as “inactive”.
With `CCOc1ccccc1NC(=O)c1c(NCc2ccc(C)o2)sc2c1CCCCC2` the Potency was active: 12.6 µM.
For `CCn1nc(C)c(-c2cc(C(=O)N3CCc4nc5cc(-c6ccccc6)[nH]n5c(=O)c4C3)no2)c1C`, the Potency was inconclusive: 0.0631 µM [inhibitor, full curve, poor fit].
For `OC1(CN2CCN(CCc3ccccn3)CC2)CCCNC1` (configuration not stated), the Potency was “inactive”.
In the case of `COc1ccccc1-c1nc(C(=O)NC(C)C)n2ccncc12`, the Potency is reported as inconclusive: 2 µM [inhibitor, full curve, poor fit].
With `CC(C)OCCCNC(=O)c1ccc(Cn2ccn3nc4c(c3c2=O)CCCC4)cc1` the Potency was inconclusive: 3.98 µM [inhibitor, partial curve, poor fit].
In the case of `C[C@H]1[C@@H]2[C@H]3OC(=O)[C@@H](C)[C@@H]3CC[C@@]2(C)CC[C@@H]1NC(=O)c1ccc(C#N)cc1`, the Potency is reported as inconclusive: 12.6 µM [inhibitor, partial curve, poor fit].
In the case of `Cc1nc(N2CCCn3nc(CO)cc3C2)c(Cl)c(=O)[nH]1`, the Potency is reported as inconclusive: 3.55 µM [inhibitor, single point].
In the case of `COC1C(=O)N(c2cccc(F)c2)C12CCN(C(=O)NCc1ccc(C)cc1)CC2` (configuration not stated), the Potency is reported as “inactive”.
For `Cc1cccc(NC(=O)C(=O)NCC(c2cccnc2)N2CCc3ccccc32)c1C` (configuration not stated), the Potency was inconclusive: 10 µM [inhibitor, single point].
For `O=C(Cn1cc(S(=O)(=O)c2ccc(F)cc2)c(=O)c2cc3c(cc21)OCO3)Nc1ccccc1`, the Potency was “inactive”.
For `Cc1cnc(C2CCN(S(=O)(=O)c3ccc4c(c3)CCC4)C2)n1C(C)C` (configuration not stated), the Potency was inconclusive: 1.41 µM [inhibitor, partial curve, poor fit].
For `CCn1cnnc1CC1CCN(C(=O)NC)C1` (configuration not stated), the Potency was “inactive”.
With `CCC(=O)Nc1ccc2nc(SCCOc3cccc(C)c3)sc2c1` the Potency was “inactive”.
In the case of `CC1=C[C@@H](CC#N)[C@H](C(C)C)C[C@H]1CC(=O)NC1CCCCC1`, the Potency is reported as inconclusive: 15.8 µM [inhibitor, single point].
For `Cc1ccc(S(=O)(=O)c2nnn(CC(=O)Nc3ccccc3C)c2N)cc1C`, the Potency was inconclusive: 7.94 µM [inhibitor, partial curve, poor fit].
In the case of `Cc1ccccc1C(=O)N1CCC(CCC(=O)N2CCN(c3ccccn3)CC2)CC1`, the Potency is reported as inconclusive: 17.8 µM [inhibitor, single point].
In the case of `CCOC(=O)CNC(c1ccccc1)c1cc(Br)ccc1NC(=O)c1ccc(Cl)cc1` (configuration not stated), the Potency is reported as active: 3.98 µM.
For `COCCc1noc(-c2ccccc2OC2CNC2)n1`, the Potency was inconclusive: 17.8 µM [inhibitor, single point].
For `CN1CCOc2c(C(=O)NCCN3CCNC3=O)cc(-c3cccc4[nH]ccc34)cc21`, the Potency was inconclusive: 2.24 µM [inhibitor, single point].
For `CCCOc1ccc(-c2nonc2NC(=O)COc2ccc(C)cc2)cc1OCCC`, the Potency was inconclusive: 3.55 µM [inhibitor, partial curve, poor fit].
For `Cc1cc(CNc2ccc(-c3nc(CCCc4ccccc4)no3)cn2)no1`, the Potency was inconclusive: 6.31 µM [inhibitor, partial curve].
In the case of `CCCCc1ncc(CN2CCCC(c3cccc(C(=O)O)c3)C2)[nH]1` (configuration not stated), the Potency is reported as “inactive”.
For `COc1ccccc1OCC(=O)NCC1(N2CCOCC2)CCCCC1`, the Potency was inconclusive: 8.91 µM [inhibitor, single point].
With `Cc1cc(CN(C)C(=O)C2CCCN(C3CCN(Cc4ccncc4)CC3)C2)n[nH]1` (configuration not stated) the Potency was “inactive”.
With `Fc1ccc2nc([C@H]3CCN(Cc4ncc[nH]4)C3)[nH]c2c1` the Potency was “inactive”.
With `CC(c1ccc(F)cc1)N1Cc2cc(NC(=O)c3cccs3)ccc2OCC1=O` (configuration not stated) the Potency was inconclusive: 1.41 µM [inhibitor, partial curve, poor fit].
In the case of `COc1cccc(Cn2c(=O)c(-c3noc(C)n3)c3n(c2=O)CCCCC3)c1`, the Potency is reported as inconclusive: 17.8 µM [inhibitor, single point].
With `CN1CCCCCCN(S(=O)(=O)c2ccccc2)[C@H]2CCC[C@H]2C1=O` the Potency was active: 3.98 µM.
In the case of `CCOc1ccccc1CN1CCOCCNC(=O)[C@H]2CCCC[C@H]21`, the Potency is reported as inconclusive: 10 µM [inhibitor, single point].
For `COC(=O)[C@@H]1Cc2ncn(Cc3ccccc3)c2CN1C(=O)COc1ccccc1`, the Potency was “inactive”.
With `C=CCNC(=O)c1cnn2c1CN(C(=O)OCc1ccccc1)CC2` the Potency was inconclusive: 10 µM [inhibitor, single point].
In the case of `Cc1cccc(Nc2nc(Nc3cccc(C)c3)nc(N3CCOCC3)n2)c1`, the Potency is reported as active: 11.2 µM.
In the case of `Cc1cc2c(n1-c1ccc(C(=O)NCC(C)c3ccccc3)cc1)CCCC2` (configuration not stated), the Potency is reported as active: 10 µM.
With `O=C(c1ccoc1)N1CCC2(CC1)CC(CO)N(C(=O)c1ccccc1)C2` (configuration not stated) the Potency was “inactive”.
With `CCOc1ccc(CNC(=O)c2ccc3c(c2)sc2nc(-c4ccc(OC)cc4)cn23)cc1` the Potency was inconclusive: 17.8 µM [inhibitor, partial curve, poor fit].
For `COc1ccc(OC)c(-c2nc3c(C)cccc3cc2CN2CCCC(O)C2)c1` (configuration not stated), the Potency was inconclusive: 11.2 µM [inhibitor, single point].
With `COc1cc(OC)c(NC(=O)CSC2=Nc3ccccc3N=C(c3ccc(F)cc3)C2)cc1Cl` the Potency was inconclusive: 10 µM [inhibitor, single point].
With `Cc1ccccc1Nc1c(-c2cccc(O)c2)nc2ccc(Br)cn12` the Potency was inconclusive: 17.8 µM [inhibitor, single point].
In the case of `O=C(CCC[C@@H]1[C@H]2CCCN3CCC[C@@H](CN1C(=O)Cc1ccc(F)cc1)[C@@H]23)N1CCOCC1`, the Potency is reported as inconclusive: 17.8 µM [inhibitor, single point].
For `CC(C)NC(=O)C1CCc2sc(C(=O)N3CCCCCC3)cc2C1` (configuration not stated), the Potency was inconclusive: 7.94 µM [inhibitor, partial curve].
In the case of `Cc1nn(C)c(C)c1S(=O)(=O)N1CCC2(CC1)CC(Cc1cccc(F)c1)CCO2` (configuration not stated), the Potency is reported as “inactive”.
With `CC(CCO)Nc1nc2c(c(=O)n(C)c(=O)n2C)n1Cc1ccc(Br)cc1` (configuration not stated) the Potency was inconclusive: 1.78 µM [inhibitor, partial curve, poor fit].
For `O=C1CCN(S(=O)(=O)c2ccccc2)CCCC(c2nc(-c3cccnc3)no2)CCN1` (configuration not stated), the Potency was inconclusive: 5.01 µM [inhibitor, partial curve, poor fit].
For `COc1ccc(-c2n[nH]c3c2C(c2ccc(Cl)cc2Cl)NC3=O)cc1` (configuration not stated), the Potency was “inactive”.
In the case of `CN(C)c1nc2c(c(=O)[nH]1)CCN(Cc1ccc(F)cc1F)CC2`, the activity, negative = inhibition is reported as inactive: 0.633% [at 5.79 µM].
In the case of `COc1ccc2[nH]c3c(c2c1)CCNC31CCN(C(=O)C2CC2)CC1`, the Potency is reported as inconclusive: 3.98 µM [inhibitor, single point].
For `O=C(c1n[nH]c(=O)c2ccccc12)N1CCCC1c1nc(CCOc2ccc(F)cc2)no1` (configuration not stated), the Potency was inconclusive: 11.2 µM [inhibitor, single point].
With `Cc1onc(-c2cnn(C)c2NCc2ccc(C#N)cc2)c1C(=O)N1CCCC1` the Potency was “inactive”.
With `Cc1c(C(=O)OC2CCCC2)[nH]c2c1C(=O)CC(c1ccc(Cl)cc1)C2` (configuration not stated) the Potency was “inactive”.
In the case of `CC(C)CC(=O)N1CCCC(c2nc(C3CCOCC3)no2)C1` (configuration not stated), the Potency is reported as inconclusive: 2.24 µM [inhibitor, single point].
In the case of `CCOc1ccccc1CNC(=O)CN1CC2CC(C1)[C@H]1CCCC(=O)N1C2` (some centres not stated), the Potency is reported as inconclusive: 17.8 µM [inhibitor, single point].
For `COCCn1ncc(N2CCC(C(=O)N(C)CC(=O)Nc3ccc(F)cc3)C2)cc1=O` (configuration not stated), the Potency was “inactive”.
In the case of `COC(=O)c1ccc(NC(=O)Cn2c(C)cc3nc4n(c(=O)c32)CCC4)cc1`, the Potency is reported as inconclusive: 20 µM [inhibitor, single point].
For `O=C1CCN(C(=O)c2cccc3[nH]ccc23)CCCCCCN1`, the Potency was “inactive”.
In the case of `CC[C@@H](NC(=O)c1cc(S(N)(=O)=O)ccc1C)C1CC(O)C1` (some centres not stated), the Potency is reported as “inactive”.
For `O=C1CC2CCN(Cc3ccccc3)CC2CCN1` (configuration not stated), the Potency was “inactive”.
With `CNC(=O)[C@@H]1CN(Cc2ccc(C#N)cc2)C[C@H]1COC` the Potency was inconclusive: 1.78 µM [inhibitor, full curve, poor fit].
In the case of `O=C(c1ccc(F)cc1)N1c2nc(-c3ccco3)nn2C2(CCCCC2)[C@@H]2CCCC[C@@H]21`, the Potency is reported as inconclusive: 17.8 µM [inhibitor, single point].
With `O=C(NCC1CCOCC1)C1CC(=O)N(c2n[nH]c3cc(Br)ccc23)C1` (configuration not stated) the Potency was “inactive”.
For `COc1ccc(-c2cc(N3CCCN(C(=O)c4cccc(Br)c4)CC3)n[nH]2)cc1`, the Potency was inconclusive: 1 µM [inhibitor, partial curve, poor fit].
In the case of `COc1ccccc1CNC(=O)CCC1N=C2c3ccccc3N=C(SCc3cccc(Cl)c3)N2C1=O` (configuration not stated), the Potency is reported as inconclusive: 15.8 µM [inhibitor, single point].
With `OC1CCOC2(CCN(Cc3ccc(OC(F)(F)F)cc3)CC2)C1` (configuration not stated) the Potency was inconclusive: 6.31 µM [inhibitor, partial curve].
With `CN(C)C(C(=O)N1CCN(Cc2ccccc2C#N)CC1)c1ccc(F)cc1` (configuration not stated) the Potency was inconclusive: 12.6 µM [inhibitor, single point].
